Test results as given in the RNAGym collection of RNA variant scans (doi:10.7554/elife.90254).
The source gives no read counts; variants with many changes may rest on few reads.

B1: LINE1-mini (parent)
chain: GGCAGAGCUCAACACAGCGUGGCAAAGUGGCUGUGGCUAGACUGCC

Variants of: B1
Assay: self-cleavage, relative activity (ratio to wild type); higher = more cleavage; in vitro, sequencing; the parent is a self-cleaving ribozyme
With C10U G27A C31U U34A the self-cleavage was 0.07.
G7A A12U C15G C23G U28G gave a self-cleavage of 0.05.
C3U A25C U32C A39G showed a self-cleavage of 0.06.
Work on A6C G22U C45U yielded a self-cleavage of 0.65.
For G7A C10U C13G, the self-cleavage was 0.04.
In the case of G2U G29A C37U, the self-cleavage is reported as 0.02.
Work on G2A A12G G19A C46A yielded a self-cleavage of 0.04.
In the case of A14G G21U G40A, the self-cleavage is reported as 0.04.
For C13A C18U A26G, the self-cleavage was 0.03.
G7U U20A G36U showed a self-cleavage of 0.1.
Work on C10A G22C G40C yielded a self-cleavage of 0.03.
Variant G5U G44A C45G has a self-cleavage of 0.05.
In the case of C3G U28G G29U, the self-cleavage is reported as 0.27.
With G1A A14C G17C the self-cleavage was 0.04.
With C3G G29U C31A the self-cleavage was 0.02.
In the case of C8U A14C G19U C31U, the self-cleavage is reported as 0.01.
C10A A25C C37U U38C showed a self-cleavage of 0.02.
For C13G A25U U34A G36C, the self-cleavage was 0.05.
Variant C3G G22A C23U C31G U32G C37U has a self-cleavage of 0.04.
C10A A16C G33U showed a self-cleavage of 0.02.
C8A C18A G22C G33A showed a self-cleavage of 0.1.
With A16C G30A G33C the self-cleavage was 0.02.
With A4C U34G G36U C42U the self-cleavage was 0.
With U9C C10A G36A U43G the self-cleavage was 0.02.
A6C G30C U43C gave a self-cleavage of 0.11.
Work on A16U G17C G19A G40A yielded a self-cleavage of 0.03.
G5U C13G U34C gave a self-cleavage of 0.03.
Work on A25C G36A A39G yielded a self-cleavage of 0.16.
For G5A A6C C10A C15A, the self-cleavage was 0.03.
With G19U A24G U32G the self-cleavage was 0.1.
With C18G G30C A39C C45A the self-cleavage was 0.05.
A26G G29C A41G G44C gave a self-cleavage of 0.
With G27U G30A G36A the self-cleavage was 0.1.
G7C A14C A16C G30U gave a self-cleavage of 0.11.
Work on C3U G17U C18G yielded a self-cleavage of 0.12.
A12C G21C C45A showed a self-cleavage of 0.
For A6G C23U G30C G40C, the self-cleavage was 0.
With C10A C18U C23A G44U the self-cleavage was 0.
With A12G C23G U28A G36A the self-cleavage was 0.01.
With G1A U9C A11C A26G the self-cleavage was 0.03.
For C23A A24U C31A C37A, the self-cleavage was 0.08.
Variant G1A C8A G30C has a self-cleavage of 0.16.
Work on A12G C18A A25U A41U yielded a self-cleavage of 0.04.
G1U G5U G21U A41G showed a self-cleavage of 0.02.
U20G G33A U43C showed a self-cleavage of 0.03.
With G5U G22C G29U G40C the self-cleavage was 0.03.
With G2C U20G G29A C42G the self-cleavage was 0.
A4C C8A G30U C37A showed a self-cleavage of 0.13.
In the case of G1U G22C G30U, the self-cleavage is reported as 0.01.
A16C A24C G33A G35U showed a self-cleavage of 0.08.
Work on A14C C18U G33U U43C yielded a self-cleavage of 0.01.
G7C C18A C23A C46A showed a self-cleavage of 0.06.
Variant A4U C15G C18U has a self-cleavage of 0.04.
Work on G2A C10A A24G C45U yielded a self-cleavage of 0.17.
In the case of G1C C3A G7C G35U C46A, the self-cleavage is reported as 0.03.
With G2C U9A G22U C37U the self-cleavage was 0.13.
In the case of C3G G30U G44U, the self-cleavage is reported as 1.25.
For G2U U9C G33C G40A, the self-cleavage was 0.02.
In the case of G17A U20A C23U, the self-cleavage is reported as 0.06.
With C15G A24U G29A the self-cleavage was 0.07.
Work on U9G A16C U34G yielded a self-cleavage of 0.08.
Variant G7A C37U G40C has a self-cleavage of 0.32.
C18U G35A C37U U38G G40A showed a self-cleavage of 0.01.
Work on A4U C8A A41U yielded a self-cleavage of 0.09.
Variant A24C U34A C42U has a self-cleavage of 0.04.
For G5U C8G A16G A25C, the self-cleavage was 0.1.
Variant G1U C13G U20A has a self-cleavage of 0.01.
A6U C13G G29U gave a self-cleavage of 0.18.
Variant G1C A14C G21U has a self-cleavage of 0.02.
For G5C A11G U32A, the self-cleavage was 0.02.
C10A A16C C31A gave a self-cleavage of 0.02.
For C18A A25G G30A, the self-cleavage was 0.09.
For G1U A12G C23G C42A, the self-cleavage was 0.02.
Variant C31G G44C C46U has a self-cleavage of 0.05.
In the case of A6G G21U A26U, the self-cleavage is reported as 0.2.
Work on G2A G19U C42U yielded a self-cleavage of 0.1.
Variant A6G C15U G35A has a self-cleavage of 0.08.
G7C C13U G19C U28G C42G showed a self-cleavage of 0.03.
A12U A26U G33U gave a self-cleavage of 0.02.
Work on A4G G7U G22U yielded a self-cleavage of 0.09.
With A14U G40U G44U the self-cleavage was 0.04.
For C10G G27U G36U A41C U43C, the self-cleavage was 0.
In the case of A6C A11G G36U C46G, the self-cleavage is reported as 0.05.
Variant U20C G21A A41C has a self-cleavage of 0.02.
With C15A G29U C42U the self-cleavage was 0.07.
Work on A16G U28C C46U yielded a self-cleavage of 0.33.
C10U C18G U34C A41G showed a self-cleavage of 0.08.
A16C G17A U38G gave a self-cleavage of 0.03.
In the case of C18G G19C A41G C45A C46U, the self-cleavage is reported as 0.03.
C8U C18U U20C U43A C45G showed a self-cleavage of 0.32.
Work on C13U C31G C45U yielded a self-cleavage of 0.01.
G1U G22A C42A showed a self-cleavage of 0.03.
Work on G5U A11C G22U A24U G36U C45G yielded a self-cleavage of 0.01.
Variant A4G C13A G27U G36U has a self-cleavage of 0.19.
Variant G1A G33U U38G has a self-cleavage of 0.06.
In the case of A4U A11C G22C, the self-cleavage is reported as 0.01.
Variant A16C U28A G35C has a self-cleavage of 0.01.
A39U A41C G44A showed a self-cleavage of 0.04.
Work on A4U C13U C31A C46U yielded a self-cleavage of 0.24.
For G2A G5C G17C G22A G29A C45G C46G, the self-cleavage was 0.03.
G17C G19U C37U G44U gave a self-cleavage of 0.18.
With G5U C18U U32A the self-cleavage was 0.02.
With G5C C15G G36U the self-cleavage was 0.01.
In the case of C18U A26C G30U, the self-cleavage is reported as 0.69.
With G1U C8G G21A the self-cleavage was 0.23.
G5A C31U A41U C42G gave a self-cleavage of 0.04.
C15U G19A U28C U34C U43G C45U showed a self-cleavage of 0.01.
C8A U28A C37A gave a self-cleavage of 0.06.
Variant C13G G22U G27U has a self-cleavage of 0.19.
With G5U C8A A16C U34A G36U A39G the self-cleavage was 0.49.
Variant C13U U20G G22C U38A has a self-cleavage of 0.07.
With C8A U9C A12U G17U A25U the self-cleavage was 0.11.
In the case of G2C A6G C15A G17A G22A, the self-cleavage is reported as 0.12.
With A16U G22C A26U C37U the self-cleavage was 0.32.
With U9G A16C G21C G36A the self-cleavage was 0.03.
For C13U A39C G40C, the self-cleavage was 0.05.
C18G U43A G44U gave a self-cleavage of 0.04.
Work on G2A A6G A12G yielded a self-cleavage of 0.03.
C8A G40C C45U showed a self-cleavage of 0.07.
C10A A26C C37U C46A gave a self-cleavage of 0.
With G17A C18G G44C the self-cleavage was 0.03.
Variant A12U C18U U38C has a self-cleavage of 0.03.
In the case of U9A G19U G21C A39U C46U, the self-cleavage is reported as 0.05.
A4C C8A G40A U43G gave a self-cleavage of 0.15.
For G5C C18A C31U C45G, the self-cleavage was 0.03.
With C15U G22C A25G A41G the self-cleavage was 0.17.
With G2A A16C G29A U34C C37A A39C the self-cleavage was 0.17.
Work on A6G A14G G17C A24U G33A C37U yielded a self-cleavage of 0.
Work on G22C A25G G27U A39U yielded a self-cleavage of 0.38.
Variant G1A C8G C46G has a self-cleavage of 0.07.
Variant A11C G21U G30U C37G has a self-cleavage of 0.02.
A12C C23U C37A gave a self-cleavage of 0.02.
With G2C G5U G40C the self-cleavage was 0.03.
With G5C A24U U32G G33A U43C the self-cleavage was 0.03.
Variant G5C G7A C31U A39C has a self-cleavage of 0.03.
Work on C18U G22C U28C yielded a self-cleavage of 0.31.
Work on A6C C10U G22A A26G G27C G44A yielded a self-cleavage of 0.06.
For A6U A14U C37A, the self-cleavage was 0.08.
Work on A6U U9A A25C G40A yielded a self-cleavage of 0.09.
A4G G7U A11U gave a self-cleavage of 0.04.
With G7A A12G A24G G27C C37U the self-cleavage was 0.01.
With C3G A6U A24C the self-cleavage was 0.15.
G7C C15U G33C gave a self-cleavage of 0.1.
With G7A G21A U34A the self-cleavage was 0.03.
Variant G5C G33C C37U has a self-cleavage of 0.04.
For G22A A24C A26G U34G, the self-cleavage was 0.3.
A26U G36C U43A gave a self-cleavage of 0.02.
G1A G2A C18A G33U C37A showed a self-cleavage of 0.28.
Work on A11U G40A C45G yielded a self-cleavage of 0.04.
Variant G5C A6G C23U A41U has a self-cleavage of 0.07.
Variant G1U C3G C46A has a self-cleavage of 0.22.
G1U U20A A39U U43C showed a self-cleavage of 0.04.
In the case of A4U A6G G35U, the self-cleavage is reported as 0.13.
With G7C A14U G36C G40C the self-cleavage was 0.13.
C23U A24G G44C gave a self-cleavage of 0.11.
For G7U G22A U32A, the self-cleavage was 0.04.
In the case of G1A A16U C18U G35U C37A U38A, the self-cleavage is reported as 0.01.
Work on A11G C23A G27A G44A yielded a self-cleavage of 0.02.
A4C A14C G21U G29C G30U A39G gave a self-cleavage of 0.02.
In the case of U9G A12U C13U A24U U28G U43A, the self-cleavage is reported as 0.01.
In the case of C15U G29A C37A, the self-cleavage is reported as 0.11.
In the case of G17U U20A C42G, the self-cleavage is reported as 0.01.
In the case of G19C G21C G30C C42U, the self-cleavage is reported as 0.06.
C10G C37A U38G G44U showed a self-cleavage of 0.01.
For G2U C8U A16G U38C, the self-cleavage was 0.08.
With U9A G21A G30A U32A the self-cleavage was 0.07.
For C8A A16U A25U U38G, the self-cleavage was 0.05.
